Results on 2 substances are retold here after article PMC6446853.

Protein sequences, listed by entry. Tags and fused reporters are not part of them.
UniProt P14635: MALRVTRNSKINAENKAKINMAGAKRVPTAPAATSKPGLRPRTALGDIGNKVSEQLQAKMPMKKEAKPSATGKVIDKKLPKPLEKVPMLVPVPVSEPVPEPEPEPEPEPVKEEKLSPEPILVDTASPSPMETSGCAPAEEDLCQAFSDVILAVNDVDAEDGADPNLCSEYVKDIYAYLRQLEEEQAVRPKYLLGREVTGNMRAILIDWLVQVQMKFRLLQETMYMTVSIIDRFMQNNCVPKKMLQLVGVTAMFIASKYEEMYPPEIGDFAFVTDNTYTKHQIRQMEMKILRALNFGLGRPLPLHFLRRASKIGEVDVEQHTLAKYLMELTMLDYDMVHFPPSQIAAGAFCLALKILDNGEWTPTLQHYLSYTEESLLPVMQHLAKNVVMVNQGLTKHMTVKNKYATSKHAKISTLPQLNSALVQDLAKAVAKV
UniProt Q14980: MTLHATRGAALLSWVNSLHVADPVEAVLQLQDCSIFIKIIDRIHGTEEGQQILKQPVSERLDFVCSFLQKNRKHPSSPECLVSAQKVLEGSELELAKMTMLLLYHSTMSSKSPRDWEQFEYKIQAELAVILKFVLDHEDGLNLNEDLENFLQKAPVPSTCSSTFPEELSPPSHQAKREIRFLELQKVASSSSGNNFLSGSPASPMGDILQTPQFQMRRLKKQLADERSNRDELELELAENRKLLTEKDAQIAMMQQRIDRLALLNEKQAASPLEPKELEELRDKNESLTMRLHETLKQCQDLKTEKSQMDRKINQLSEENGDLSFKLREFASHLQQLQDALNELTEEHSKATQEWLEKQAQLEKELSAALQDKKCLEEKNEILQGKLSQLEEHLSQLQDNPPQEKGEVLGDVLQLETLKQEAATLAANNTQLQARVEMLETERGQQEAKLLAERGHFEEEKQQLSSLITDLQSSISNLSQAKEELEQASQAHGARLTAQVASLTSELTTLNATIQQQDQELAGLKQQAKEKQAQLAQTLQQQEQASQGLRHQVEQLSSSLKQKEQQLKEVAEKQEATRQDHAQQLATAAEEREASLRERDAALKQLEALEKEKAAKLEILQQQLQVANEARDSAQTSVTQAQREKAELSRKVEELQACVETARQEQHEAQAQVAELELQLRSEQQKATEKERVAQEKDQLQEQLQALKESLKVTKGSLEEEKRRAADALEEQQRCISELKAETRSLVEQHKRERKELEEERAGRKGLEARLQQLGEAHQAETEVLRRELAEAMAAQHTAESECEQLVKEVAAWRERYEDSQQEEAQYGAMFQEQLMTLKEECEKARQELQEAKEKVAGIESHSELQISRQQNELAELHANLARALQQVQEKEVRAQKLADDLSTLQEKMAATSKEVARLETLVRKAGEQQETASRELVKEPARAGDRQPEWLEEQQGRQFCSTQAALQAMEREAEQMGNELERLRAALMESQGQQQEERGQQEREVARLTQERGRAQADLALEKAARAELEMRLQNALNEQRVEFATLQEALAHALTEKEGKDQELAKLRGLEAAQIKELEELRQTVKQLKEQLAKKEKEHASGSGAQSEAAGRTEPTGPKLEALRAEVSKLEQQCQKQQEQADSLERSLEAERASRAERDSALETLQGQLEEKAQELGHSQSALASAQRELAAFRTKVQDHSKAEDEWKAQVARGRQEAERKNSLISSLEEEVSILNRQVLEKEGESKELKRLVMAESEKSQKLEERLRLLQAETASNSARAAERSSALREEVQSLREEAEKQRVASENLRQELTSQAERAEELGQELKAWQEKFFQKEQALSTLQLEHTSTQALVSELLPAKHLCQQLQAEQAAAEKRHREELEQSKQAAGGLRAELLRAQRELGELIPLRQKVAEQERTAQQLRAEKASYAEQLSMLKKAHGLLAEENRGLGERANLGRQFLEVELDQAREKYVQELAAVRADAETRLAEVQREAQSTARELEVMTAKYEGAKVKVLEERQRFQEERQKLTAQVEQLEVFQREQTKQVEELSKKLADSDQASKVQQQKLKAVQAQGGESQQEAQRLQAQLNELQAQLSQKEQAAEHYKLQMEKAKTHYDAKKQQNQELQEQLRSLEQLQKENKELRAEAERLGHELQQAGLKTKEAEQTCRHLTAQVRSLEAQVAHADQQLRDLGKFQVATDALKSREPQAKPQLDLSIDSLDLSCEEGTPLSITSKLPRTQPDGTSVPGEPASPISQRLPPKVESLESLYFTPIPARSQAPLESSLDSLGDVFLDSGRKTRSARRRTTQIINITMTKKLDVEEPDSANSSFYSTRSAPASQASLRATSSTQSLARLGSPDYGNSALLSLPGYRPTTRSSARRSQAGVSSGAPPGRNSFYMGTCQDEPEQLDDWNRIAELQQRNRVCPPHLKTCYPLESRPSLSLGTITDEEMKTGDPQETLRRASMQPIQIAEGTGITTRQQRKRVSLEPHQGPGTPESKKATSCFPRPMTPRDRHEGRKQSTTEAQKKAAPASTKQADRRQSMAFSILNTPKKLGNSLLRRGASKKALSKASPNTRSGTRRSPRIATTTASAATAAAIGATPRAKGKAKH

No constants are given. Whether binding was seen depends on the method and setting. Binding seen in cells or lysates may run through a third protein. Some entries that bind do so weakly or less than the wild type.

Test [1] deals with T1, full-length mCh-MAD1 (human) (UniProt Q9Y6D9).
T1 sequence: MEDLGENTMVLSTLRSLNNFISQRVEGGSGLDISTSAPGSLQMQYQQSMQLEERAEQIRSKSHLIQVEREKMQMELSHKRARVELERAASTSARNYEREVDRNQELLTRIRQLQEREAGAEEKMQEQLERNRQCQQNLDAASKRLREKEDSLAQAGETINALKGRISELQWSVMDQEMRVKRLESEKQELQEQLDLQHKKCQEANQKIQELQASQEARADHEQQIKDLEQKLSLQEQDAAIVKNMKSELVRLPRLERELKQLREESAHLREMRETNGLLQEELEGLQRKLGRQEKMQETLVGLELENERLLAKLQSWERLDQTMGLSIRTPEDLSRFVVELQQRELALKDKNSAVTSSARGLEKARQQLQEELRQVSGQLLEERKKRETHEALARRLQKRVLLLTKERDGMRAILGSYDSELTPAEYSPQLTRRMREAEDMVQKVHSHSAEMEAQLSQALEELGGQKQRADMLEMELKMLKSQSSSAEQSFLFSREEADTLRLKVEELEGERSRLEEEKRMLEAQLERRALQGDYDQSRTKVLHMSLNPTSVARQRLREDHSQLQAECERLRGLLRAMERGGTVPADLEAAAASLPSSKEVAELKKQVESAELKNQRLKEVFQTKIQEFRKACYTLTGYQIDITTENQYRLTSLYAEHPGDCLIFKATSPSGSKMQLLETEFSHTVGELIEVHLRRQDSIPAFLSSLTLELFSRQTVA
As to the kind of experiment: co-IP; cells cotransfected for 20 h with Myc-CCNB1 and mCherry-MAD1 constructs (HEK293T in the methods, HeLa in the legend); MAD1 IP with sheep anti-mCherry; Western blot for Myc.

In another test the target is T2, mCh-MAD1^101–718 (human) (UniProt Q9Y6D9).
T2 sequence: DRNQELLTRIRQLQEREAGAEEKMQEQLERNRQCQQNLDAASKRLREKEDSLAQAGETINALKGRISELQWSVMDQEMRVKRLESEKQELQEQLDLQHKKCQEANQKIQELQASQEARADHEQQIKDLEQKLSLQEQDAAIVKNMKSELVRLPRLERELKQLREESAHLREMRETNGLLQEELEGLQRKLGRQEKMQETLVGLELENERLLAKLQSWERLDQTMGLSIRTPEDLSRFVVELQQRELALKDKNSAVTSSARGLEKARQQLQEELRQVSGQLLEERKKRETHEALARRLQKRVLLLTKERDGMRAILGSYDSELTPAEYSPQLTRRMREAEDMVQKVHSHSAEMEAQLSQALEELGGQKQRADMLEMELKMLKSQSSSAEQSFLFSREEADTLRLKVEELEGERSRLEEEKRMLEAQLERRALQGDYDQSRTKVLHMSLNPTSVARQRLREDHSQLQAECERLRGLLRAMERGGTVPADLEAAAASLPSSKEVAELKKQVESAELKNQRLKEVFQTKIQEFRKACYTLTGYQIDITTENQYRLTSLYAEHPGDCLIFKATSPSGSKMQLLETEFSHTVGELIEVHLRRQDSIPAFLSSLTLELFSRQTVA
Described as above.

The next test concerns the target T3, mCh-MAD1^241–718 (human) (UniProt Q9Y6D9).
T3 sequence: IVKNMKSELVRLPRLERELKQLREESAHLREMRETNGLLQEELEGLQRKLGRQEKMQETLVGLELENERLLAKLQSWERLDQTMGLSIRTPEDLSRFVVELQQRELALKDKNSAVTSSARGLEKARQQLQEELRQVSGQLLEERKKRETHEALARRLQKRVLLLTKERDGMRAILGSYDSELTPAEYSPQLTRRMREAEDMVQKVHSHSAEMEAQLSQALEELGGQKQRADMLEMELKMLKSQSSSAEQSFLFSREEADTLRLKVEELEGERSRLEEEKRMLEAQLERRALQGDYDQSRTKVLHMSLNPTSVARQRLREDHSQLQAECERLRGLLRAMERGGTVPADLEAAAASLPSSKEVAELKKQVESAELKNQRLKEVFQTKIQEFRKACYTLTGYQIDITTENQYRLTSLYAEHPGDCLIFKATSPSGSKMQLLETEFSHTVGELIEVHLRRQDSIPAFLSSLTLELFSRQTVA
Described as above.

Test [2] deals with CCNB1-mCherry (cyclin B1 tagged at the endogenous locus) (human (endogenous in HeLa)) (UniProt P14635). In words: co-IP; CCNB1-mCherry precipitated with anti-mCherry antibodies from CCNB1-mCh or parental HeLa cells arrested in mitosis; Western blotting; also tested without ongoing MPS1 activity (Fig. S2 B). For orientation: Immunoblotting shows a protein as a band on a membrane.

Take Myc-CCNB1 (from UniProt P14635 1-433): the binding entry in test [1] is given as “binds”; with mCh-MAD1^101–718 (human), “no binding”; with mCh-MAD1^241–718 (human), “no binding”.

With “spindle protein NuMA (from UniProt Q14980 1-2115)”, the binding result in test [2] is recorded as “binds”.
